Source: PubChem BioAssay AID2147 (National Center for Advancing Translational Sciences (NCATS), 2009)
Out of some 230,000 compounds screened, about 3,600 (1.6%) were called active. The shares of active, inactive and inconclusive entries below differ from those in the screen. Calls come from the whole dose curve; as a rule, active = well fitted inhibition curve with a large enough effect (not every such curve was filed as active); inconclusive = small, poorly fitted or top-dose-only effect, or another doubt; inactive = no such curve, though single readings can be large or run the other way. Potencies of inconclusive entries are doubtful fits and often do not repeat.

Biological target: Lysine-specific demethylase 4E (Homo sapiens) (UniProt B2RXH2)
UniProt B2RXH2, sequence (B2RXH2 whole entry, looked up, the tested form may be a part): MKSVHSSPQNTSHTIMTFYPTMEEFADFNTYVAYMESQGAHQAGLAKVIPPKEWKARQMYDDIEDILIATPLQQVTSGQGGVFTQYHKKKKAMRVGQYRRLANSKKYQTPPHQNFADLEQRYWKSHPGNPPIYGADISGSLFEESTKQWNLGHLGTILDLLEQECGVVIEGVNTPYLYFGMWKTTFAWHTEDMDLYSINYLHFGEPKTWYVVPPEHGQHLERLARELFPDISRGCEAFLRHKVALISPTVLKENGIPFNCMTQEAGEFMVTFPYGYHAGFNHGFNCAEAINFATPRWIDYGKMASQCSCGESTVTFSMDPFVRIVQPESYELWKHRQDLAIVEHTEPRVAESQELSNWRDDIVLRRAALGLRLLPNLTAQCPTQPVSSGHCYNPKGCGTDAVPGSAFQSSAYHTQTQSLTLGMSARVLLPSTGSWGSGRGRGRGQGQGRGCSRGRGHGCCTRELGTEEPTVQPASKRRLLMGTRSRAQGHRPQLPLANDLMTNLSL
Test: qHTS Assay for Inhibitors of Human Jumonji Domain Containing 2E (JMJD2E)
Settings: JMJD2E catalytic domain, FDH-coupled NADH fluorescence (FDH is formaldehyde dehydrogenase); series mostly up to 57.1 µM; activity change, negative = inhibition: at the top concentration
Note: nearly all actives have a fitted effect of over 50% in size.
Potency is the fitted concentration of half-maximal effect; tags give direction and shape of the fitted curve.
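Throughout, for activity change, negative = inhibition: 0% = wells with enzyme and -100% = buffer wells without enzyme.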

Compound	activity change, negative = inhibition	Potency
CCN(CC)S(=O)(=O)c1ccc(-c2nnc(SCC(=O)c3ccc(OC)cc3)o2)cc1	inactive: 2.8%	–
NC(=S)n1[nH]c(-c2ccc([N+](=O)[O-])cc2)c(N=Nc2ccc(O)cc2)c1=O	inactive: 4.02%	–
CCSc1nc2sc3c(c2c2[n+]1CC(CBr)O2)CCCC3 (centres undefined)	–	inconclusive: 39.8 µM [inhibitor, single point]
O=C(NCCCN1CCOCC1)c1sc2cc([N+](=O)[O-])ccc2c1Cl	–	inconclusive: 31.6 µM [inhibitor, single point]
CN(C)CCNc1nc(-c2ccco2)c2c(c1C#N)CC(C)(C)OC2	–	inconclusive: 28.2 µM [inhibitor, partial curve]
COc1ccc(OC)c(/C=N/NC(=O)c2ccc(Cn3cc([N+](=O)[O-])cn3)o2)c1	–	inconclusive: 39.8 µM [inhibitor, single point]
Cc1cc(=O)[nH]c(SCC(N)=O)c1C#N	inactive: 0.748%	–
CCN1CCN(CCNC(=O)c2ccc(/C=C3/Sc4ccccc4N(Cc4cccc(C)c4)C3=O)cc2)CC1	–	inconclusive: 39.8 µM [inhibitor, single point]
O=C(NN1C(=O)c2ccccc2NC1c1ccco1)c1ccccc1 (centres undefined)	–	inconclusive: 28.2 µM [inhibitor, partial curve]
O=C(O)CCSCCCN1C(=O)c2cccc3cccc(c23)C1=O	–	inconclusive: 22.4 µM [inhibitor, partial curve]
O=C(O)CC[C@H](NC(=O)c1ccccc1C(=O)O)C(=O)O	inactive: 4.34%	–
Cc1[nH]c(=O)[nH]c(=O)c1/C=N/NC(=O)[C@@H](N)CC(C)C	–	inconclusive: 22.4 µM [inhibitor, single point]
O=C(NCc1cn2ccccc2n1)c1ccco1	–	inconclusive: 35.5 µM [inhibitor, single point]
Cc1c(C(=O)c2ccccc2)c2ccccn2c1CCc1ccccn1	–	inconclusive: 25.1 µM [inhibitor, single point]
CCOc1ccc(NC(c2ccccn2)c2oc(CO)cc(=O)c2O)cc1 (centres undefined)	–	active: 22.4 µM
O=C(CC1C(=O)NCCN1Cc1ccc(-c2ccccc2)cc1)NCCOc1cccnc1 (centres undefined)	–	inconclusive: 25.1 µM [inhibitor, single point]
N#C/C(=C\c1ccc(N2CCCCC2)o1)C(N)=O	inactive: -20.5%	–
CCCn1nc(C(=O)Oc2ccc3c(C)cc(=O)oc3c2)c2ccccc2c1=O	–	inconclusive: 6.31 µM [inhibitor, partial curve]
Nc1c2nc(-c3ccccc3Cl)[nH]c(=O)c2nc(=O)n1-c1ccccc1	–	inconclusive: 22.4 µM [inhibitor, partial curve]
CC(=O)c1ccc(C(=O)Nc2nnc(-c3ccc(Cl)cc3)o2)cc1	–	inconclusive: 39.8 µM [inhibitor, single point]
Cc1cccc(-c2nc(C#N)c(NC3CCCCC3)o2)c1	–	inconclusive: 31.6 µM [inhibitor, partial curve]
O=C(COC(=O)Cn1cnc2ccccc2c1=O)NCCC1=CCCCC1	–	inconclusive: 35.5 µM [inhibitor, single point]

Compound	activity change, negative = inhibition	Potency
CCCCN(CC)C(=O)CSc1cc(=O)n(C)c2ccccc12	–	inconclusive: 39.8 µM [inhibitor, single point]
CN1CCN(CC(=O)N/N=C/c2ccc(F)c(F)c2)CC1	–	inconclusive: 39.8 µM [inhibitor, single point]
Cn1ncc([N+](=O)[O-])c1C(=O)Nc1nccs1	–	inconclusive: 39.8 µM [inhibitor, single point]
COc1cccc(NC(=O)c2ccccc2-c2ccccc2)c1	–	inconclusive: 35.5 µM [inhibitor, single point]
COC(=O)c1cc(NC(=O)c2cccc(C(F)(F)F)c2)c(=O)oc1C	inactive: -17.2%	–
CCCCOCCCNc1ncnc2c1[nH]c1ccccc12	–	inconclusive: 31.6 µM [inhibitor, partial curve]
C=C1C(=O)OC2C[C@@]3(C)CCCC(C)C3=CC12 (some centres undefined)	inactive: -1.25%	–
C/C(=N/NC(=O)c1cc(-c2cccc([N+](=O)[O-])c2)n[nH]1)c1cccc(O)c1	inactive: 1.62%	–
CCOC(=O)C1=C(CC)OC(N)=C(C#N)C1c1cccs1 (centres undefined)	–	inconclusive: 39.8 µM [inhibitor, single point]
Cc1ccc(OCc2nnc(NC(=O)c3ccco3)s2)c(C)c1	inactive: -0.537%	–
CN(C)c1ccc(C(=O)c2ccccc2C(=O)O)cc1[N+](=O)[O-]	–	inconclusive: 39.8 µM [inhibitor, single point]
CCOC(=O)/C(C#N)=C/Nc1ccsc1C(=O)OC	–	inconclusive: 22.4 µM [inhibitor, single point]
CCn1c(=O)c(=O)[nH]c2cc(C(=O)NC3CCCC3)ccc21	–	inconclusive: 35.5 µM [inhibitor, single point]
CCCCn1c(C)cc2cc(O)ccc21	–	inconclusive: 39.8 µM [inhibitor, single point]
CC(C)c1cc(-c2cc(-c3ccccc3)on2)nc(NC2CCCC2)n1	–	inconclusive: 31.6 µM [inhibitor, partial curve]
CCOC(=O)Cc1cc(=O)n2[nH]c(C(C)(C)C)cc2n1	–	inconclusive: 28.2 µM [inhibitor, single point]
CS(=O)(=O)Nc1ccc(Cc2ccc(NS(C)(=O)=O)cc2)cc1	–	inconclusive: 35.5 µM [inhibitor, single point]
Cc1cccnc1Nc1nc(-c2ccccn2)cs1	–	inconclusive: 31.6 µM [inhibitor, single point]
COc1cc(COc2ccc3c(C)c(Cc4ccccc4)c(=O)oc3c2)cc(OC)c1OC	–	inconclusive: 20 µM [inhibitor, partial curve]
Cn1ncc(N=Cc2ccccc2[N+](=O)[O-])c1C(N)=O	–	inconclusive: 8.91 µM [inhibitor, single point]
CC1(C)CC(=O)c2cc(OCC(=O)NCCN3CCOCC3)ccc2O1	–	inconclusive: 28.2 µM [inhibitor, partial curve]
Clc1ccc(COc2ccccc2-c2ccnc3ncnn23)cc1	–	inconclusive: 31.6 µM [inhibitor, partial curve]
